Test results reported in PubChem BioAssay AID1345083 (National Center for Advancing Translational Sciences (NCATS), 2018).
“And” between values parts separate entries of the source, which are not always exact repeats. Identical values can stand only once. About 6,200 (6.6%) of roughly 94,000 compounds were called active. Inconclusive results, whose numbers are uncertain, are shown with a selection of clear calls. The call rests on the fitted dose curve; in most records, active means well fitted inhibition curve with a large enough effect; inconclusive means small, poorly fitted or top-dose-only effect; inactive means flat fitted curve, though single readings scatter. Potencies of inconclusive entries are doubtful fits and often do not repeat.

Experiment: Cytotoxic Profiling in HEK 293 Cell Line of Diverse Libraries Using Quantitative High-Throughput Screening; further: nearly all actives have a fitted effect of over 60% in size
Conditions: HEK 293 viability, ATP luminescence (CellTiter-Glo), 48-72 h; activity change, negative = cytotoxicity: at 115 µM (top of the series) unless noted; series mostly up to 115 µM
Method in brief: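 ATP-coupled CellTiter-Glo luminescence served as viability read-out, recorded 10 min after reagent addition at room temperature. HEK 293 cells, 250 cells/well, had been incubated with pintool-transferred compound for 48 or 72 hr at 37 degree Celsius.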
On the % scale 0 is the no-effect control and ±100 the full control effect; potency means the concentration at half of the fitted maximal effect; tags describe the fitted curve by direction and shape.

Structure (SMILES) | Potency | activity change, negative = cytotoxicity
COc1ccc(CNC(=O)c2ccc3c(c2)N(C(=O)c2ccc(F)cc2)CC3)cc1 | inconclusive: 50.1 µM [inhibitor, partial curve, poor fit] | 
O=C(NC1CCN(c2cc(-c3ccc(F)cc3)[nH]n2)CC1)c1ccc(OC(F)(F)F)cc1 | active: 20 µM | 
Cc1cc(C)cc(C(=O)NC2CCN(c3cc(-c4cccs4)[nH]n3)C2)c1 (configuration not stated) | inconclusive: 50.1 µM [inhibitor, partial curve, poor fit] | 
COc1ccc(C(C)NC(=O)c2cc3c(N4CCCC4)nc(C)cn3n2)cc1OC (configuration not stated) | inconclusive: 50.1 µM [inhibitor, partial curve, poor fit] | 
O=C(Cc1cccnc1)N1CCc2c(nc3cc(-c4ccccc4)[nH]n3c2=O)C1 |  | inactive: 6.63%
Cc1ccc(CN2CCN3C(=O)N(C4CCOCC4)C[C@H]3C2)cc1 |  | inactive: -11.2% [at 172 µM]
COc1cccc(NC(=O)[C@@H]2C[C@H](c3ccc(F)cc3)N([S+](C)(=O)[O-])C2)c1 | inconclusive: 100 µM [inhibitor, partial curve, poor fit] | 
Cc1cc(OCCN2CCOCC2)c(C)c2c1CC[C@@H]([C@H](C)C(=O)NC(C)(C)C)C2 | inconclusive: 100 µM [inhibitor, partial curve] | 
O=C(NCc1ccc(F)cc1)c1ccc2nccn2c1 | inactive and inconclusive: 126 µM [inhibitor, single point] | 
COc1ccc(F)cc1-c1cccc(C(=O)NCCN[S+](=O)([O-])c2c(C)noc2C)c1 | inconclusive: 50.1 µM [inhibitor, partial curve, poor fit] | 
COCCN1CCCCCC(O)c2cc(C(=O)NCCC3=CCCCC3)ccc21 (configuration not stated) | inconclusive: 89.1 µM [inhibitor, single point] | 
Cc1noc(C)c1C(=O)N1CCC([C@H]2[C@@H](Oc3ccccc3)CN2C(C)C)CC1 |  | inactive: -11.5%
O=C(Nc1cccc(-c2ccc(N3CCOCC3)nn2)c1)Nc1cc(F)ccc1F | active: 79.4 µM | 
COc1cccc(CN2Cc3cc(NC(=O)Cc4cccs4)ccc3OCC2=O)c1OC | inconclusive: 25.1 µM [inhibitor, full curve] | 
CCc1ncc(C(=O)N2CCN(c3ccc(Cl)c(Cl)c3)CC2)cn1 | inconclusive: 50.1 µM [inhibitor, partial curve, poor fit] | 
COc1cc(F)ccc1-c1cn(C)c(=O)n2cc(COc3ccc(C(=O)O)cc3)nc12 | inconclusive: 70.8 µM [inhibitor, partial curve] | 
CN1CC(=O)N(c2ccc(Cl)cc2)Cc2c(NC3CCCCC3)ncnc21 | inconclusive: 89.1 µM [inhibitor, single point] | 
CC1(c2ccccc2)N(Cc2ncccn2)C(=O)OC12CCN(C(=O)Cc1ccc(Cl)cc1)CC2 (configuration not stated) |  | inactive: -11.7%
O=C1CCCCC(CNC(=O)c2nccc3ccccc23)N1 (configuration not stated) |  | inactive: -4.8%
CCOc1ccc2c(n1)CCN(C(=O)C(C)C)C2 |  | inactive: -20.1%
Cc1nn(CCO)c(C)c1NC(=O)CCc1cc2n(n1)CCCNC2 |  | inactive: 1.99%

Structure (SMILES) | Potency | activity change, negative = cytotoxicity
COc1cc2c(cc1CNc1ncncn1)CCC2 | inconclusive: 89.1 µM [inhibitor, single point] | 
O=C(Nc1ccc([C@@H](O)[C@H]2COCC(=O)N2Cc2ccccc2)cc1)C1CCCC1 | inconclusive: 70.8 µM [inhibitor, partial curve, poor fit] | 
CC(=O)N1CC2(CCN(CCS(C)(=O)=O)CC2)CC1C(=O)O (configuration not stated) | inconclusive: 3.98 µM [inhibitor, partial curve, poor fit] | 
CC(=O)c1cccc(NC(=O)Cn2c(N3CCc4ccccc4C3)nc(C)cc2=O)c1 | active: 44.7 µM | 
O=C(Cc1ccccc1Cl)N1CCCC(n2cc(-c3nc(-c4ccccc4)no3)nn2)C1 (configuration not stated) | inconclusive: 50.1 µM [inhibitor, partial curve, poor fit] | 
Cc1nn2c(c1-c1ccccc1C(C)C)N([S+](=O)([O-])c1ccc(C(C)C)cc1)CCC2 | active: 39.8 µM | 
C[S+](=O)([O-])N1CCCC(c2nn(-c3cccc(Cl)c3)c(=O)[nH]2)C1 (configuration not stated) |  | inactive: -12.2%
COC1CCN(S(=O)(=O)N2CCCC(C)(c3ccccc3)C2)CC1 (configuration not stated) | inconclusive: 50.1 µM [inhibitor, partial curve, poor fit] | 
CC(=O)NC1CCN(c2ccc3nnc(C)n3n2)CC1 |  | inactive: -6.7% [at 172 µM]
COc1ccccc1CN1CC(CNC(=O)c2ccccc2)C2(C1)CN(c1ccccc1)C2 (configuration not stated) | inconclusive: 50.1 µM [inhibitor, partial curve, poor fit] | 
CNC(=O)c1cc(-c2ccc(OC)c(OC)c2)cc2c1OCCN2Cc1cccnc1 |  | inactive: -11.7% [at 172 µM]
O=c1c2nc(-c3ccoc3)ccc2ncn1-c1ccc(F)cc1F | inconclusive: 70.8 µM [inhibitor, partial curve, poor fit] | 
O=C(Cc1ccc(F)cc1)N1CCN(c2ccc3nnc(-c4ccccc4)n3n2)CC1 | inconclusive: 50.1 µM [inhibitor, partial curve, poor fit] | 
COc1cc(C)c(CN2CCN3C(=O)CNC(=O)C3C2)cc1C(C)C (configuration not stated) |  | inactive: -23.9%
O=C(Cc1ccccc1)NCCC1CCN(C(=O)Nc2cc(F)ccc2F)CC1 |  | inactive: -0.449%
COCCNC(=O)CCc1c(C)nn(-c2cccc(C)c2)c1Oc1ccccc1 | inconclusive: 79.4 µM [inhibitor, partial curve, poor fit] | 
Cc1ccccc1C(=O)N1CCCN(C)c2ccccc21 | inconclusive: 56.2 µM [inhibitor, partial curve, poor fit] | 
Cc1nn2c(c1-c1ccccc1C(C)C)N(C(=O)c1cccnc1)CCC2 | inconclusive: 112 µM [inhibitor, partial curve, poor fit] | 
CC(C)N1C(=O)C2(CCN(C(=O)c3ccccc3F)CC2)C1c1ccccc1 (configuration not stated) |  | inactive: -20.1%
Cc1nn(-c2ccccc2)c(C)c1CC(=O)NC1CCCN(Cc2ccccc2F)C1 (configuration not stated) | inconclusive: 44.7 µM [inhibitor, partial curve, poor fit] | 
O=C(c1cc(Cl)ccc1F)N1CCCN(c2cc(-c3ccccc3)[nH]n2)CC1 | inconclusive: 50.1 µM [inhibitor, partial curve, poor fit] | 
